The record followed here is the supplement of paper PMC11417369.

Some of the results follow.

The assay deals with PfSIP2 AP2 domain 1 (GST-tagged). Kind of assay: gcPBM binding intensity (ln(normalized median fluorescence intensity)); higher = stronger DNA binding. The method in brief: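 An Agilent 4 × 180k array of primer-extended double-stranded 36-bp intergenic genomic probes, with negative controls, was incubated for 1 h with GST-tagged P. falciparum DNA-binding domains expressed in E. coli. Alexa488 anti-GST antibody detected bound protein, scanned at 488 nm. Binding intensity is the highest Masliner-normalised natural-log median intensity across replicate spots of either probe orientation.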
Regarding “TTCTATTCACATTTTACACACGTCCATCGCATTTTA [CACACA_site3453]”, the “gcPBM binding intensity (ln)” value was found to be 7.28. For the sequence “TTTTAAATTTAATTTACACACTTTTCATAGCATTGA [CACACA_site3794]”, the “gcPBM binding intensity (ln)” value turned out to be 6.74. With “ATTGTGCTCATCAGCACACACAACATCATGTAATAA [CACACA_site1863]”, the “gcPBM binding intensity (ln)” value is 7.2. For the sequence “TTATATTTATAAAATTGTATACCCCTTCTAACTTTC [CACACA_negctrl_site250]”, the “gcPBM binding intensity (ln)” value turned out to be 6.96. The same measure for “TATATATATGGTTTAACACACGAGATAAAAGTATAT [CACACA_site2867]”: 7.23. With “TATATGGTATGTATTACACACATATCACATATAGAT [CACACA_site7426]”, the “gcPBM binding intensity (ln)” value came out at 6.89. Consider “ACATTTAATGTTATATGTACATAATATTATAAGTAT [XGTACX_site1393]”, for which the “gcPBM binding intensity (ln)” value stood at 7.19. The same measure for “CATATGGCAATAATTACATGCAAAAAAAAAAAAAAA [TGCATGCA_site578]”: 6.95; for “AGCCATATCTTTTTTGCACACACTACAATAAAACAA [CACACA_site1650]”: 7.65; for “AATGTAAAAGTAAACACACACATATATTTATACATA [CACACA_site7218]”: 6.81. Regarding “ACAGACGTTCAAAGGTGTACGCAAAATGAATAATAT [XGTACX_site7565]”, the “gcPBM binding intensity (ln)” value worked out at 7.14. The same measure for “GTAAATCGACACATACGTACATACATTTATATATAT [XGTACX_site3143]”: 7.57; for “AAAAAAAAGAAAAACACACACATATATATATATAAT [CACACA_site4707]”: 6.97. The same measure for “TTCTTATTTAATGTATCACACACGAGAATAAAAAAT [CACACA_site8992]”: 7.23; for “AAAAAAAAAAACGACAGTACAATTATAATTTATATT [XGTACX_site2365]”: 6.95. Next, “AGAGTTAAACGATATATATAAATATATATATATATA [GTGCAC_negctrl_site316]”: 9.18; “ATGTCTTAAAAATTAAAACACACGTTCACTTTCATA [CACACA_site3385]”: 6.9. “AGATCATAATATTATACACACATTAGATATAGGTAA [CACACA_site6809]”: the “gcPBM binding intensity (ln)” value was 7.

Take “AAATGTAATTTGTCTTTTATTTATATTTGACATGAT [TGCATGCA_negctrl_site520]”: the “gcPBM binding intensity (ln)” value is 6.93. On to “ATATTAATGATATATACACACATAAGTATTGTATAT [CACACA_site7844]”, for which the “gcPBM binding intensity (ln)” value is 6.91.

Consider “TTGATGGGAAAAAACTTTTTTTTCTTTTTTTCTTTC [CACACA_negctrl_site328]”, for which the “gcPBM binding intensity (ln)” value turned out to be 6.45.

Consider “AAAAATTATAAAAAACAAATATTAAATAATTATTAA [GTGCAC_negctrl_site125]”, for which the “gcPBM binding intensity (ln)” value amounted to 6.67. The same measure for “TTTTTTTTTTTTTTTTTTTTTTTGCTCAGTGTGGTA [CACACA_negctrl_site29]”: 6.99. Next, “TATCACCCACCATGAAGTACATATTACCATTTGATG [XGTACX_site845]”: 6.83; “ATAAATAAATAAAAGCGTACATATATATAAAATATA [XGTACX_site8107]”: 6.98. For the sequence “AAAAGGAAGATATATACACACATACAAATATTTATA [CACACA_site7093]”, the “gcPBM binding intensity (ln)” value amounted to 6.84. As for “TTATACTAAATGAACACACACACATATATATATATA [CACACA_site99]”, the “gcPBM binding intensity (ln)” value was 9.48. As for “AATTAAATGTTTCTAAGATATACGACCAATGTATTT [CACACA_negctrl_site1694]”, the “gcPBM binding intensity (ln)” value was 6.78. As for “AATTAATGGGTACATACACACATATATACATACATA [CACACA_site742]”, the “gcPBM binding intensity (ln)” value was 7.18.

For the sequence “TGTATTATCTCTTATGAACACACATTTTTATTTTCA [CACACA_site9107]”, the “gcPBM binding intensity (ln)” value turned out to be 7.09.

Consider ATGTTAATTAATGAGGTGCATTGAATATTTCAATAA, for which the “gcPBM binding intensity (ln)” value was 10.6. As for “CATCAATGCTAATTATGTACTTACATAAATAACCCT [XGTACX_site968]”, the “gcPBM binding intensity (ln)” value stood at 7.05. Regarding “ATACCTAAAAAATATACACACATATATATAAATATA [CACACA_site2580]”, the “gcPBM binding intensity (ln)” value was found to be 7.12. The same measure for “TGGTGAAAAATATAAATATAAATAAATATATATATA [CACACA_negctrl_site1725]”: 8.73; for “AGAAGAAAACAAAACACACACATATATCTTAATATA [CACACA_site2231]”: 6.82; for “AAAAAAAAAAACTTTGCATGTAATAATAAAAAAAAA [TGCATGCA_site81]”: 6.8. Consider ATGATCTGTTTGTTTGTGCACATATATATATATTAA, for which the “gcPBM binding intensity (ln)” value amounted to 9.2. The same measure for “TATATATTACATAAAACACACAAAAAAAAAATTAAA [CACACA_site3882]”: 6.94; for “TTTATATTTTTTTTTGCACACTTTAAAAAAATATAT [CACACA_site1146]”: 7.4; for “AAATAAATTGAAGATACATGCATATTTTTTTTTTAT [TGCATGCA_site686]”: 6.84.

Consider “ATGTAGAGTAATAGTTGTACAAGGTGTATATCTCAT [XGTACX_site6370]”, for which the “gcPBM binding intensity (ln)” value was found to be 6.96. Regarding “AAACTATACCAAAACACACATACAAAATATAAAAAA [CACACA_site2707]”, the “gcPBM binding intensity (ln)” value turned out to be 6.98. On to “ATTTTCAAATTATCAGATGAATCTTTTTAAGATCTT [XGTACX_negctrl_site598]”, for which the “gcPBM binding intensity (ln)” value is 6.55. Next, “CTCATATATAACACATGTACACAGATTTTGCAAATG [XGTACX_site6879]”: 7.51. The same measure for “GTCTGCATATGGATACGTACACATATATATTAATGT [XGTACX_site2260]”: 7.47; for “TTTTTTTTTTTTTTTTTACACACTGCATACAAGAAA [CACACA_site3026]”: 7.08; for “GGGAAAAAATGAGGTCGTACATTTTTCATCACAAAT [XGTACX_site8920]”: 6.96. The same measure for “AATGAATGTACATACGCATGTACTTGACTAAATTAT [TGCATGCA_site436]”: 7.01; for “TGGTAATACCCATACACACACACATACCCATATATA [CACACA_site5509]”: 6.99. For the sequence ATAAATAAAACAACAGTGCAATAAAATTAGTTGAGG, the “gcPBM binding intensity (ln)” value turned out to be 7.5. Next, “TTTTTTATGAGGTGGTGTACTTTTTTTTTTTTCTTT [XGTACX_site8550]”: 7.29; “CAAGAAACAGTGATACGTACACATATATATATATAT [XGTACX_site3229]”: 9.25; TTCAAATAAATAGTAGTGCATATTTATTAATGTAAA: 9.3. Next, “ATTAAAGAGAGACATCAACACACATACGTATGTATA [CACACA_site8393]”: 6.94; “TAATATATTATAAACACATGCACATTAATAATAACT [TGCATGCA_site708]”: 9.16. Turning to “TATTTTTTAAAAAAACGTACAAACATAATAAAAATA [XGTACX_site1857]”, the “gcPBM binding intensity (ln)” value is 7.52. The same measure for “ATAGACATTTTACTTTGTACATATAAACATATATAT [XGTACX_site2733]”: 7.11; for TATATATATATATATGTGCACATTTTATTAAAATGT: 9.6.

With ATATGAAACATGAAGGTGCATAATGTGTATATTTAT, the “gcPBM binding intensity (ln)” value worked out at 10.8.

Consider “ACATAAATATATTTTTCACACATCATTAGTTATGAA [CACACA_site4724]”, for which the “gcPBM binding intensity (ln)” value was determined as 7.03. As to “AAGGTATGATTAATCACACACATAAATATAAATACA [CACACA_site5464]”, the “gcPBM binding intensity (ln)” value was 6.99.

Regarding “AAGCTTCATTAATATACACACATATATGTGTATATT [CACACA_site7693]”, the “gcPBM binding intensity (ln)” value is 6.89.

In the case of “AATAAAGAAGAAGAAAGTACACATTTCACAAAGGGG [XGTACX_site1308]”, the “gcPBM binding intensity (ln)” value is 7.29. With “GATATATGTATAATAACGCACACTACAAAAATAAAA [CACACA_site2100]”, the “gcPBM binding intensity (ln)” value worked out at 7.41.

On to “ATAAAATATAGGTATGCACACACATATACTTCTGTG [CACACA_site8398]”, for which the “gcPBM binding intensity (ln)” value came out at 9.39. Next, “TATATAATACGAATTTGTACATATTAAATAAATTAT [XGTACX_site93]”: 6.84; “GTTAGTTTTAGTTCATGTACATAATAGAAAATATAT [XGTACX_site7125]”: 7.63; “TTTTTTCTTTTCAAGGTGCTTTATAAGAAAAAGGGA [GTGCAC_site9858]”: 7.79. For “AAAAAAAAAAAAAACACACACACACCCAAATACATA [CACACA_site708]”, the “gcPBM binding intensity (ln)” value was found to be 7.46.

In the case of “TATTTTATCATTTGCACACGCACACCCACATAAAAA [CACACA_site354]”, the “gcPBM binding intensity (ln)” value amounted to 8.03. “TATATTAAAACAAGCACACAATCGCATAATATCCTT [CACACA_site3210]”: the “gcPBM binding intensity (ln)” value worked out at 6.71. As for “AGTATTATATTTTCTTGTACACATGTAAAATACCTC [XGTACX_site1359]”, the “gcPBM binding intensity (ln)” value stood at 7.17.

With “AAAAAAAAAAAAAAAACACACATATATGTATATATA [CACACA_site3276]”, the “gcPBM binding intensity (ln)” value is 7.43. Next, “CAATTACGCAGGAATGCACACAATAATAAAAAAAAT [CACACA_site3513]”: 7.43. The same measure for “ATATATATATATATATGTACATATTTTTTATTTTAT [XGTACX_site5761]”: 9.29. Next, “TATTATTCAAATAAAAGAAAAATATATATATTATAT [GTGCAC_negctrl_site273]”: 7.28; “ATATGTTACTTTACATAAAGAAGAAGAAGAAGAAAA [CACACA_negctrl_site985]”: 6.63; “TTTCAAAAAGGAAGAAAAAAAAAAAAAAAAAATATA [XGTACX_negctrl_site514]”: 6.6. As to “TCCCCCTTTTTTTGATTTTTATCTTAATTCTAAAAG [GTGCAC_negctrl_site541]”, the “gcPBM binding intensity (ln)” value worked out at 7.05. The same measure for “AAACATTTAAATGGAAACACAGAAAAATGAAAAATG [CACACA_negctrl_site457]”: 7.12. The same measure for “TTTTTTTTTTGTAATACACACCACTATATGTTATTT [CACACA_site5087]”: 6.84.

Take “ATATATATATATACATGTACATATATACATTATATT [XGTACX_site936]”: the “gcPBM binding intensity (ln)” value came out at 9.54. Regarding “ATGTTATATTTTTTTATACACACTGGAATATATAAA [CACACA_site215]”, the “gcPBM binding intensity (ln)” value turned out to be 7. In the case of “TATATATATATATATTGTACTTTATTTTATATATTC [XGTACX_site5697]”, the “gcPBM binding intensity (ln)” value turned out to be 9.35. Next, “ATTATTATTGTCAAATGTACAAGCTAATAATTTTTA [XGTACX_site7167]”: 6.94; “ATTTATAATGAGTATACACACATATATAGATTTGCT [CACACA_site4517]”: 6.88. On to “TAAAAAATAAAATACACACACATATTTATATTTATA [CACACA_site6737]”, for which the “gcPBM binding intensity (ln)” value was 6.87. Consider “AAAAAAAAAAAAAACATACACACAAGAACAAAATAT [CACACA_site3003]”, for which the “gcPBM binding intensity (ln)” value came to 7.28. The same measure for “CAACAACATTTTTCATGTACATATATTTTATAATAT [XGTACX_site519]”: 7.38.
